{"source": "PubChem BioAssay (NCATS)", "note": "Where “and” joins values, the source holds several entries; their conditions need not be identical. Identical values can stand only once. This list was built around the results that the source calls inconclusive (neither active nor inactive); the mix of calls is not that of the screen. A potency beside an inconclusive call is a rough fit, not a confirmed value. Calls of active or inactive are those of the source. The call rests on the fitted dose curve; in most records, active means well fitted cell-killing curve with a large enough effect; inconclusive means small, poorly fitted or top-dose-only effect; inactive means flat fitted curve, though single readings scatter. Potency means the concentration at half of the fitted maximal effect; tags describe the fitted curve by direction and shape."}
{"assay": "qHTS of pediatric cancer cell lines to identify multiple opportunities for drug repurposing: Primary screen for RD cells (AID 1347104); further: nearly all actives have a fitted effect of over 55% in size", "conditions": "RD rhabdomyosarcoma viability, CellTiter-Glo luminescence, 48 h; series mostly up to 46 µM; activity change, negative = cytotoxic: at the top concentration", "description": "Drug repurposing or repositioning has been offered as a strategy for drug development in oncology programs. This approach has special potential for childhood cancers and other rare or orphan diseases, where the expected return on new drug development has been a disincentive to pharmaceuticals. […] In this project we exploit the poly-pharmacology of drugs to discover new indications via phenotypic screening of a panel of 19 well-characterized cell lines derived from solid tumors seen in children and adolescents. The goal is to identify approved drugs with previously unrecognized anticancer properties that has the potential to reveal new mechanisms and biological processes involved in carcinogenesis or drug resistance. We employed a titration-based paradigm (quantitative high-throughput screening or qHTS), where all compounds were tested at multiple concentrations for their effect on cell viability. Concentration-response curves (CRCs) were derived directly from the primary screen, and both potency and efficacy values were used to identify compounds with robust bioactivity profiles. We screened the NIH Chemical Genomics Center (NCGC) Pharmaceutical Collection (NPC) and Mechanism Interrogation Plate (MIPE) small molecule collections of approved and investigational compounds against these cell lines; and measured metabolically active cells after 48 hours of compound treatment as a proxy for cell viability. […] Assay Submitter: Nathalia J. Martinez, National Center for Advancing Translational Sciences, National Institutes of Health, Rockville, MD, USA; email: natalia.martinez@nih.gov Shen, M et al. Quantitative high-throughput phenotypic screening of pediatric cancer cell lines identifies multiple opportunities for drug repurposing. Oncotarget 2017 Dec 19;9(4):4758-4772. PMID 29435139.\nThe cells were obtained from University of North Carolina (UNC), Pediatric Preclinical Testing Program (PPT), and Coriell Institute (CI). qHTS cell viability assay: Cells were assayed in growth media at a density of 500-1,000 cells/well. Five microliters of cells were dispensed into 1,536-well, white, solid-bottom, TC-treated plates (Greiner Bio One) using a multidrop dispenser and incubated at 37 degrees C, 5% CO2, under a humidified atmosphere for 5 hours. Twenty-three nanoliters of compounds and controls (neutral control DMSO or positive control bortezomib at final concentration of 2.3 µM) were subsequently transferred by Kalypsys pintool. For primary screens, the MIPE collection was tested at 11-point dilutions (final concentrations range from 0.78 nM to 46 µM) and the NPC collection at 8-point dilutions (final concentrations range from 0.59 nM to 46 µM). Compounds tested in follow-up screens were assayed at 11-point dilutions. Cells were incubated for 48 hours, followed by addition of 3 µL of CellTiter-Glo (Promega). After a 15 min incubation at room temperature, samples were analyzed for luminescence intensity using a ViewLux High-throughput CCD imager equipped with clear filters."}
{"smiles": "Cc1cc(Nc2nc(N[C@@H](C)c3ncc(F)cn3)ncc2Cl)n[nH]1", "Potency": "active: 16.6 µM"}
{"smiles": "CC(O)(C#Cc1ccc2c(c1)N(c1nc(N)ncc1Cl)CC2)c1nccs1", "note": "(stereo not given)", "Potency": "active: 18.7 µM"}
{"smiles": "CN1CCC(N(Cc2cccs2)c2ccccc2)CC1", "Potency": "inconclusive: 26.6 µM [cytotoxic, single point]"}
{"smiles": "CC(C)(Cc1c[nH]c2ccccc12)NCC(O)COc1ccccc1C#N", "note": "(stereo not given)", "Potency": "inconclusive: 16.8 µM [cytotoxic, partial curve, poor fit]"}
{"smiles": "CS(=O)(=O)c1cccc(CNc2nc(Nc3ccc4c(c3)CCC(=O)N4)ncc2C(F)(F)F)c1", "Potency": "active: 16.6 µM"}
{"smiles": "CC(C(O)c1ccccc1)N(C)CCOC(c1ccccc1)c1ccccc1", "note": "(stereo not given)", "Potency": "inconclusive: 29.9 µM [cytotoxic, single point]"}
{"smiles": "O=C1NC2CCCCN2C12CCN(CCCN1c3ccccc3CCc3ccc(Cl)cc31)CC2", "note": "(stereo not given)", "Potency": "inconclusive: 29.9 µM [cytotoxic, single point]"}
{"smiles": "C=CCNc1nc(NCC=C)nc(N2CCN(C(c3ccc(F)cc3)c3ccc(F)cc3)CC2)n1", "Potency": "inconclusive: 0.0024 µM [cytotoxic, partial curve, poor fit]"}
{"smiles": "Cc1cnc(-c2cnc(NCCNc3ccc(C#N)cn3)nc2-c2ccc(Cl)cc2Cl)[nH]1", "Potency": "active: 20.9 µM"}
{"smiles": "CCC(=C(c1ccccc1)c1ccc(OCCN(C)C)cc1)c1ccccc1", "Potency": "inconclusive: 37.2 µM [cytotoxic, single point]"}
{"smiles": "CCCSS/C(CCO)=C(\\C)N(C=O)Cc1cnc(C)nc1N", "Potency": "inconclusive: 23.7 µM [cytotoxic, single point]"}
{"smiles": "O=C(OCC(O)CO)c1ccccc1Nc1ccnc2c(C(F)(F)F)cccc12", "note": "(stereo not given)", "activity change, negative = cytotoxic": "inactive: -15.6%"}
{"smiles": "Nc1nc(Cl)nc2c1ncn2[C@H]1C[C@H](O)[C@@H](CO)O1", "Potency": "inconclusive: 11.8 µM [cytotoxic, partial curve, poor fit]"}
{"smiles": "c1ccc(CN(CC2=NCCN2)c2ccccc2)cc1", "Potency": "inconclusive: 23.7 µM [cytotoxic, partial curve, poor fit]"}
{"smiles": "FC1(F)C(F)(F)C(F)(F)C2(F)C(F)(F)C(F)(F)C(F)(F)C(F)(F)C2(F)C1(F)F", "note": "(stereo not given)", "activity change, negative = cytotoxic": "inactive: 22.1%"}
{"smiles": "O=C(O)CC(O)C(=O)O", "note": "(stereo not given)", "activity change, negative = cytotoxic": "inactive: 8.42%"}
{"smiles": "Cc1cccc(N(C)C(=S)Oc2ccc3c(c2)C2CCC3C2)c1", "note": "(stereo not given)", "Potency": "inconclusive: 21.1 µM [cytotoxic, partial curve, poor fit]"}
{"smiles": "C[C@@H]1C[C@H]2[C@@H]3CCC4=CC(=O)C=C[C@]4(C)[C@@]3(Cl)[C@@H](O)C[C@]2(C)[C@@]1(OC(=O)c1ccco1)C(=O)CCl", "Potency": "inconclusive: 23.7 µM [cytotoxic, single point] and active: 8.33 µM"}
{"smiles": "Cc1ccc(CCn2c3c(c4cc(Cl)ccc42)CN(C)CC3)cn1", "Potency": "inconclusive: 23.7 µM [cytotoxic, partial curve, poor fit]"}
{"smiles": "CC(=O)NC(C)c1ccc(Oc2ccc(OC(C)C)cc2)cc1", "note": "(stereo not given)", "Potency": "inconclusive: 9.35 µM [cytotoxic, partial curve]"}
{"smiles": "Cc1cc(Nc2cc(NC(=O)c3c(Cl)cccc3Cl)ccn2)nc(N)n1", "Potency": "active: 0.935 µM"}
{"smiles": "C(=C\\c1ccccc1)/CN1CCN(C(c2ccccc2)c2ccccc2)CC1", "Potency": "inconclusive: 29.9 µM [cytotoxic, single point]"}
{"smiles": "O=C(CCCCCCC(=O)Nc1cccnc1)NO", "Potency": "active: 16.6 µM"}
{"smiles": "COc1cc2ncnc(Nc3ccc(F)c(Cl)c3)c2cc1OCCCN1CCOCC1", "Potency": "active: 6.79 µM and active: 23.7 µM"}
{"smiles": "CO[C@@H]1[C@@H](OC)[C@H](C)[C@@](O)(CC(=O)O)O[C@H]1[C@H](C)[C@H]1O[C@@]2(CC[C@@](C)([C@H]3CC[C@@](C)([C@@H]4O[C@@H]([C@H]5O[C@](C)(O)[C@H](C)C[C@@H]5C)C[C@@H]4OC4C[C@H](OC)[C@@H](OC)[C@H](C)O4)O3)O2)C[C@H](O)[C@H]1C", "note": "(stereo not given in full)", "Potency": "active: 4.73 µM"}
{"smiles": "CC(C)(C)c1nnc(NS(=O)(=O)c2ccccc2)s1", "activity change, negative = cytotoxic": "inactive: 19.4%"}
{"smiles": "C=CCNc1c(O)cc2c(O)c1C[C@@H](C)C[C@H](OC)[C@@H](O)[C@@H](C)C=C(C)[C@H](OC(N)=O)[C@@H](OC)C=CC=C(C)C(=O)N2", "Potency": "active: 0.264 µM"}
{"smiles": "COc1ccc([C@@H]2Sc3ccccc3NC(=O)[C@@H]2O)cc1", "Potency": "inconclusive: 26.6 µM [cytotoxic, single point]"}
{"smiles": "CC1(C)Oc2ccc(C#N)cc2[C@@H](N2CCCC2=O)[C@@H]1O", "activity change, negative = cytotoxic": "inactive: 10.4%"}
{"smiles": "CCN(CC)CCCCNc1ncc2c(n1)N(C)C(=O)N(c1c(Cl)c(OC)cc(OC)c1Cl)C2", "Potency": "active: 18.7 µM"}
{"smiles": "CCCCCCCC/C=C\\CCCCCCCC(=O)NCc1ccc(O)c(OC)c1", "activity change, negative = cytotoxic": "inactive: -17.9%"}
{"smiles": "C[C@H](NC(=O)Cc1cc(F)cc(F)c1)C(=O)N[C@@H]1C(=O)N(C)c2ccccc2-c2ccccc21", "Potency": "active: 16.6 µM"}
{"smiles": "CCN(CC)CCOc1ccc2c(c1)C(=O)c1cc(OCCN(CC)CC)ccc1-2", "Potency": "active: 21.1 µM"}
{"smiles": "CC(=O)c1ccc2c(c1)N(CCCN(C)C)c1ccccc1S2", "Potency": "inconclusive: 29.9 µM [cytotoxic, single point]"}
{"smiles": "COc1c(C)c2c(c(O)c1C/C=C(\\C)CCC(=O)OCCN1CCOCC1)C(=O)OC2", "Potency": "inconclusive: 1.5 µM [cytotoxic, full curve]"}
{"smiles": "CC(=O)O[C@]1(C(C)=O)CC[C@H]2[C@@H]3C=C(Cl)C4=CC(=O)[C@@H]5C[C@@H]5[C@]4(C)[C@H]3CC[C@@]21C", "Potency": "inconclusive: 18.8 µM [cytotoxic, partial curve, poor fit]"}
{"smiles": "COC(=O)Nc1nc2ccc(S(=O)c3ccccc3)cc2[nH]1", "note": "(stereo not given)", "Potency": "inconclusive: 750 nM [cytotoxic, full curve] and inconclusive: 20.9 µM [cytotoxic, partial curve]"}
{"smiles": "C[C@H]1[C@@H](OC(=O)CCC(=O)O)O[C@@H]2O[C@@]3(C)CC[C@@H]4[C@H](C)CC[C@@H]1[C@@]24OO3", "Potency": "active: 1.66 µM"}
{"smiles": "COc1ccc(-n2nc(CCC(=O)N(C)O)cc2-c2ccc(Cl)cc2)cc1", "Potency": "inconclusive: 21.1 µM [cytotoxic, partial curve]"}
{"smiles": "NC(=O)NS(=O)(=O)c1ccc(N)cc1", "activity change, negative = cytotoxic": "inactive: 16.8%"}
